According to the supplement of paper PMC4967469:
By IC50 is meant the dose at which the fit gives 50% viability; fits outside the tested doses are given as limits. AUC, from the same fit, is the share of area under the viability curve across the 256-fold dose range; it is 1 without any effect and falls as sensitivity rises. For part of these data: Any top dose called inferred is not printed in the source and was worked back from the curve model. For part of these data: Drugs with an entry number were screened twice under separate entries, and the two screens often disagree.

What was measured:
Assay in all cases: Viability of human cancer cell lines after 72 h of drug (GDSC screen)
PI-103 = compound: Oc1cccc(-c2nc(N3CCOCC3)c3oc4ncccc4c3n2)c1 [PI-103]; conditions: top dose 10.24 µM
Method: (§1)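 Human cancer cell lines in 384-well plates, medium with 10% serum, drug for 72 h over a 256-fold dose range (nine 2-fold or five 4-fold steps up to the top dose). Adherent lines were fixed and stained with the nucleic acid dye Syto60, suspension lines read with resazurin; signal relative to control wells, capped at 0 and 100%. One two-parameter sigmoid per drug and line, fitted in a mixed model over all curves with the slope shared within a line.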

WH-4-023 = compound: COc1ccc(N(C(=O)Oc2c(C)cccc2C)c2ccnc(Nc3ccc(N4CCN(C)CC4)cc3)n2)c(OC)c1 [WH-4-023]; conditions: top dose 5.12 µM; top dose inferred
Method: as §1

Tretinoin = compound: CC1=C(/C=C/C(C)=C/C=C/C(C)=C/C(=O)O)C(C)(C)CCC1 [Tretinoin]; conditions: top dose 10 µM; top dose inferred
Method: as §1

SB-505124 = compound: Cc1cccc(-c2[nH]c(C(C)(C)C)nc2-c2ccc3c(c2)OCO3)n1 [SB-505124]; conditions: top dose 10 µM; top dose inferred
Method: as §1

GSK690693 = compound: CCn1c(-c2nonc2N)nc2c(C#CC(C)(C)O)ncc(OC[C@H]3CCCNC3)c21 [GSK690693]; conditions: top dose 10.24 µM; top dose inferred
Method: as §1

UNC0638 = compound: COc1cc2c(NC3CCN(C(C)C)CC3)nc(C3CCCCC3)nc2cc1OCCCN1CCCC1 [UNC0638]
Method: as §1

BX-795 = compound: O=C(NCCCNc1nc(Nc2cccc(NC(=O)N3CCCC3)c2)ncc1I)c1cccs1 [BX-795]; conditions: top dose 5 µM; top dose inferred
Method: as §1

[1] = top dose 20 µM, screen: GDSC drug entry 1236, top dose inferred
[2] = top dose 40 µM, screen: GDSC drug entry 245

Cell Line	AUC (PI-103)	IC50 (PI-103)	AUC (WH-4-023)	IC50 (WH-4-023)	AUC (Tretinoin)	IC50 (Tretinoin)	AUC (SB-505124)	IC50 (SB-505124)	AUC (GSK690693)	IC50 (GSK690693)	AUC (UNC0638; [1])	IC50 (UNC0638; [1])	AUC (UNC0638; [2])	IC50 (UNC0638; [2])	AUC (BX-795)	IC50 (BX-795)
8-MG-BA (glioma, adherent)	0.445	457 nM	0.92	> 5.12 µM	0.985	> 10 µM	0.947	> 10 µM	0.89	> 10.2 µM	0.761	6.7 µM	0.727	10.5 µM	0.791	2.1 µM
697 (lymphoblastic leukaemia, suspension)	0.091	44.2 nM	0.852	2.8 µM	0.923	> 10 µM	0.986	> 10 µM	0.4	0.361 µM	0.743	5.19 µM	0.548	3.29 µM	0.663	0.802 µM
A3-KAW (B-cell lymphoma, suspension)	0.352	274 nM	0.967	> 5.12 µM	0.982	> 10 µM	0.947	> 10 µM	0.973	> 10.2 µM	0.626	2.58 µM	0.659	6.24 µM	0.851	2.69 µM
BB30-HNC (head and neck, adherent)	0.51	682 nM	0.711	1.24 µM	0.959	> 10 µM			0.929	> 10.2 µM			0.8	18.9 µM	0.838	3.28 µM
BT-474 (breast, adherent)	0.407	344 nM	0.976	> 5.12 µM	0.983	> 10 µM	0.924	> 10 µM			0.815	12.7 µM	0.655	7.1 µM	0.974	> 5 µM
DJM-1 (skin, adherent)	0.865	8900 nM	0.966	> 5.12 µM	0.949	> 10 µM			0.989	> 10.2 µM			0.989	> 40 µM	0.893	> 5 µM
DOHH-2 (B-cell lymphoma, suspension)			0.112	< 0.02 µM	0.894	> 10 µM									0.754	1.65 µM
EHEB (lymphoid neoplasm, suspension)			0.807	4.26 µM	0.804	8.03 µM	0.941	> 10 µM			0.815	18.2 µM			0.955	> 5 µM
GA-10 (Burkitt lymphoma, suspension)			0.301	0.0982 µM	0.961	> 10 µM	0.958	> 10 µM			0.646	2.95 µM			0.91	> 5 µM
GAK (melanoma, adherent)			0.989	> 5.12 µM	0.976	> 10 µM	0.967	> 10 µM	0.99	> 10.2 µM	0.875	18.1 µM	0.82	21.6 µM	0.975	> 5 µM
GCIY (stomach, adherent)	0.751	3750 nM	0.651	0.887 µM	0.98	> 10 µM			0.971	> 10.2 µM			0.964	> 40 µM	0.907	> 5 µM
HH (T-cell leukaemia, suspension)			0.877	> 5.12 µM	0.672	2.23 µM	0.922	> 10 µM	0.656	2.01 µM	0.735	7.47 µM	0.474	2.07 µM	0.798	3.33 µM
IM-9 (myeloma, suspension)			0.989	> 5.12 µM	0.991	> 10 µM	0.974	> 10 µM			0.83	10.2 µM			0.975	> 5 µM
JSC-1 (B-cell lymphoma, suspension)	0.313	193 nM	0.985	> 5.12 µM	0.973	> 10 µM			0.925	> 10.2 µM			0.503	2.55 µM	0.84	3.38 µM
K5 (thyroid, adherent)			0.93	> 5.12 µM	0.988	> 10 µM	0.972	> 10 µM	0.968	> 10.2 µM	0.871	17.5 µM	0.797	17.9 µM	0.858	3.82 µM
LB647-SCLC (small cell lung carcinoma, semi-adherent)			0.96	> 5.12 µM	0.944	> 10 µM	0.983	> 10 µM			0.793	10.4 µM	0.698	9.71 µM	0.804	2.86 µM
LS-123 (large intestine, adherent)	0.517	723 nM	0.794	3.27 µM	0.982	> 10 µM	0.938	> 10 µM	0.966	> 10.2 µM	0.979	> 20 µM	0.813	31.1 µM		
LU-65 (large cell lung carcinoma, suspension)	0.494	613 nM	0.975	> 5.12 µM	0.983	> 10 µM	0.979	> 10 µM	0.963	> 10.2 µM					0.987	> 5 µM
LU-139 (small cell lung carcinoma, suspension)	0.381	274 nM	0.981	> 5.12 µM	0.798	6.35 µM	0.967	> 10 µM	0.959	> 10.2 µM	0.61	2.74 µM	0.54	3.32 µM		
MHH-NB-11 (neuroblastoma, adherent)	0.471	530 nM	0.852	4.56 µM	0.956	> 10 µM			0.973	> 10.2 µM			0.745	13.7 µM	0.826	3.43 µM
